This is one part of the list. At the low end of the ranking the order means little. Measured with an extract: partners may take part in the binding.

For the test, the target named is T1, HNF4alpha2 (COS-7 nuclear extract) (UniProt P41235).
T1 sequence: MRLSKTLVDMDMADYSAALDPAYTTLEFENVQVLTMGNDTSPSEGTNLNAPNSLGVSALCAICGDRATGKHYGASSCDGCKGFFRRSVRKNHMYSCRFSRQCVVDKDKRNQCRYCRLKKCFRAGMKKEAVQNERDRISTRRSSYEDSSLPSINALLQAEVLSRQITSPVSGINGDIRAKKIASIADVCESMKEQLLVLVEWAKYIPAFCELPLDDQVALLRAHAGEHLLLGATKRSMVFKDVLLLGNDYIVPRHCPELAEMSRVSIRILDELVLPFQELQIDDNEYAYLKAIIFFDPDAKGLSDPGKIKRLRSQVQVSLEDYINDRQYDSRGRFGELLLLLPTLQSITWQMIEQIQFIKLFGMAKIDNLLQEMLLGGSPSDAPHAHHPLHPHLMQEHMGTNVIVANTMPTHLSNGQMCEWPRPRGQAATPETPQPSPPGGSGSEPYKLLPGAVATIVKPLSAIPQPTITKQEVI
Description: protein-binding microarray. Particulars: COS-7 nuclear extract on double-stranded Agilent 4x180k PBM; binding buffer, salt, pH and temperature not given; high values mean tight binding; double strand, one strand shown; sequences stand for … in …GCCTAGGGAGATTAGAGTATCGGTCGA
For GTTCACAAATAGCAGAAAATCCAGGTGCAG, the binding signal (log2 normalized intensity) was -0.723. As for TCCCCACTTATTACCGGTGTGACTTTGGTT, the binding signal (log2 normalized intensity) amounted to 2.1. Then AAACTCCTTCCCTTTCATGTTGAACGTCTT, with 2.12; and CCGCTGGCCTCCCCATCCTCATGACAGTAC, with 2.96.

As for TGGCCCTCTTCCAAGTGTTCTTTACTTCCT, the binding signal (log2 normalized intensity) was 0.969.

For the sequence CACTTGTGTGTAGACTCCAGGCTTGTCCTT, the binding signal (log2 normalized intensity) came to 1.25. As to TGAAGTTACAAAGGTCACACACCTGTGCAA, the binding signal (log2 normalized intensity) came out at 3.75. In the case of CTGGTTGAGGCAAGCAAAAGCCAAGGCATC it was -1.2. GCCCTGGTTGAGGAATTTGGCTCTAGAGGA: the binding signal (log2 normalized intensity) was -1.16.

As to GGGCCAGCAAGAGGTGACCCCAGGGCAAAG, the binding signal (log2 normalized intensity) was found to be 2.92. Then CAAACTGCATTCTTGTAGGTTTTTTTTTTT, with 2.35; and AGATAGAGGGCTGCCAAAGCTCACAGATGT, with -1.13.

As for AGCCCGAGCTGCTGGAACAGGCTGGGACAC, the binding signal (log2 normalized intensity) was -1.26.

Take TTTGCTCTGATCTTTGACTTCTAGTTCTTA: the binding signal (log2 normalized intensity) was found to be 1.6. In the case of CCAGAACTATCATACACTATTTTCCTAAAT it was -1.2; in that of ACGAAGAGCAAACATGGGCTTAAGACAAGA, -1.12.

With ACTTAACAAGTGAAAGTCTAAAGTTCAGTG, the binding signal (log2 normalized intensity) was 4.46. As for CATTTCAGTGAACTTTTCAATGCTCCAGTA, the binding signal (log2 normalized intensity) turned out to be 0.573. In the case of CCTTTTCACGCTAAGAAGGAATCTGTTCAC, the binding signal (log2 normalized intensity) stood at 1.45. In the case of GGAATGAAACCAGTTTCAAAACCTGATTCT, the binding signal (log2 normalized intensity) was -1.25. As to ACTGGGAGATAATGCACTGGTGACTTTAAG, the binding signal (log2 normalized intensity) was 0.195. Then CAACTAAAGGAATGCGCCTGAACTGACTGC, with -1.09. Then CCAGTCGCTTAACCTCTTGATCCTGAGTTT, with 1.13; and TTGAACTGAAGGATATTGGCAACGCCTCAG, with -0.936. Then CAAAGGAGCTTTATTGGTTCCATAAGTCAA, with -0.00154; and CCCAGCGGATTAATATCCAGAGGCTGAGCA, with -1.2. Take CCTGACCTGAAAGGTAGGCAGAGAGGCTGC: the binding signal (log2 normalized intensity) is -1.34.

GCTCTCCCACTCCCCCTGCTGGACACCGAG: the binding signal (log2 normalized intensity) turned out to be 3.37. On to TTATCTCACAAGCATGGGCCTCCTCTTCTT, for which the binding signal (log2 normalized intensity) was -1.11.

For CCTTTTTTTTGTGTGTGTGTCAGAGACCCA, the binding signal (log2 normalized intensity) came out at 1.94. In the case of GGACTGTGACCCCACCTCTCAGACAGAGCT, the binding signal (log2 normalized intensity) amounted to 2.75. In the case of CAGGGTAGAAAAGAGTTAAAAAAAAAAAAA it was -1.08; in that of TGATAGCTAGAGAGTTCAAGAAGGGCAGTT, 0.723; in that of TACTGAAATGCCAAAAAAGAAGAAGTGAAA, -1.13. In the case of AGTCCACCAACTCTGTGAATTCATTTTTTT it was 0.272; in that of TTTGCTCTGTTGTGTCAAAGGTCACTTAGT, 5.48. As for CTCTGGAGTGCAGGTGGGAGGGGTGGACTT, the binding signal (log2 normalized intensity) is 3.01. Then CGACTCAGTGGGGGGGGGGGGGGGGGTGTG, with -1.14. Then TCAGGGCAAAGACTCAAATCCAAGCTGGCT, with -1.07. In the case of GCATTTGCTCCCTGACTTGGTTTACAAGGT, the binding signal (log2 normalized intensity) came to 0.551. Then CAGTCATTGCCATCTGCAAGAGAGAATAGA, with -1.12; and TGCAGGTTCATGGGAGAGCACTTGGTGCCT, with 0.818. ACCCTCTGGGGCCGGGAGCAGGGAGCGAGA: the binding signal (log2 normalized intensity) was -1.06.

For AGTTGGAGGAACAGGTGGGGGTAAACATAG, the binding signal (log2 normalized intensity) is -1.14. Consider GCAAGGCTAGAGATTCTCCCTGGGGCCTCT, for which the binding signal (log2 normalized intensity) is -1.16.

Consider TGGCATGATCCCTGACTCATAGCTCCAGAG, for which the binding signal (log2 normalized intensity) was -1.17. With GATAAAATGAAATCGCCTGATTGGTCATAC, the binding signal (log2 normalized intensity) is 0.363. In the case of GTGACCTTTGACCTCTGGCCTTTGCAGTTA it was 8.21; in that of TCAGATGAGACTTTGGACTTTTGAACTAAG, 6.42; in that of CAGAGGCTTCCTCTTTGGTGCAAAGGTCAG, 6.86. For the sequence TGAGAGAGAAAGAGACAGAGAGAGAGAGAG, the binding signal (log2 normalized intensity) was -1.17. Then GAAGTTTTGCAATATAGGCCAGGCATACCT, with -1.1. Then ACCCAGATAAGTTATCCTTGTTCTATGTTC, with 0.342; and CTCGGGGATTAGCGATCATGGGTGACCCGT, with 3.08.

TTCTACAGTGTTTACCGGATGAAAAGTGTT: the binding signal (log2 normalized intensity) came out at 1.54. For GATAAAGGAACAGGCCCCAGGGACTTTGGC, the binding signal (log2 normalized intensity) came out at 0.839. Consider TATGTGATCAGATGTGGACAATCATTGTGC, for which the binding signal (log2 normalized intensity) was determined as 1.53. Then AGCCCTGGTTTATCTGTTGTCAAACCCACA, with 0.184. Then GCAAAGTTCACCAGGAAGCAAGACAATGCA, with -1.16; and TTTGGAGCCGGTGTCAGTTTCCACTCTGCC, with -1.04. Then AATGTAAACATCAAGGAAGAGAACTCCCTA, with -1.15; and AGGGACTTTGATCTTCTTACCCCTTTGCTG, with 2.86; and TGCATCAAACAGCTTAGGGTTCAAACTCCA, with 3.77. For the sequence ATCACTGAATCGAGGCTATTCTGTAACACA, the binding signal (log2 normalized intensity) was -0.83. In the case of ACACACACATACACACACACACACACACAT, the binding signal (log2 normalized intensity) was -1.18. For the sequence GGCAAACATTTGCGCAAACATAAAGGCAAA, the binding signal (log2 normalized intensity) was -1.15. With GAGAAAGAGACAGAGAGAGAGAGAGAATGA, the binding signal (log2 normalized intensity) is -0.959. Then TGTTCTTTACTTCCTTTTGTTCCTGCTCTA, with 1.76; and CAAAGGTCATGTTTTCAAACAATGAGAGGC, with 3.2; and ATCTTATCTAGTTTCCTAGCTCACTGATAA, with -1.16.

AGGGGGAATGCCAACAGGTCAGGGAGTAGG: the binding signal (log2 normalized intensity) was -1.13.

As for ACCTACAGCTGGGGCCACCTTTTCAGCTTC, the binding signal (log2 normalized intensity) was -1.04.

For the origin of these results see PMC10726135.
